The whole screen tested about 410,000 compounds, of which about 6,400 (1.6%) were called active. This list was built around the results that the source calls inconclusive (neither active nor inactive); the mix of calls is not that of the screen. Calls follow the shape of the dose curve; as a rule, active = well fitted inhibition curve with a large enough effect; inconclusive = small, poorly fitted or top-dose-only effect; inactive = no such curve, though single readings can be large or run the other way. No potency is given beside an inconclusive call; the fits are too rough.
Molecular target: Glucagon-like peptide 1 receptor (Homo sapiens) (UniProt P43220)
Chain of UniProt P43220 (P43220 whole entry, looked up): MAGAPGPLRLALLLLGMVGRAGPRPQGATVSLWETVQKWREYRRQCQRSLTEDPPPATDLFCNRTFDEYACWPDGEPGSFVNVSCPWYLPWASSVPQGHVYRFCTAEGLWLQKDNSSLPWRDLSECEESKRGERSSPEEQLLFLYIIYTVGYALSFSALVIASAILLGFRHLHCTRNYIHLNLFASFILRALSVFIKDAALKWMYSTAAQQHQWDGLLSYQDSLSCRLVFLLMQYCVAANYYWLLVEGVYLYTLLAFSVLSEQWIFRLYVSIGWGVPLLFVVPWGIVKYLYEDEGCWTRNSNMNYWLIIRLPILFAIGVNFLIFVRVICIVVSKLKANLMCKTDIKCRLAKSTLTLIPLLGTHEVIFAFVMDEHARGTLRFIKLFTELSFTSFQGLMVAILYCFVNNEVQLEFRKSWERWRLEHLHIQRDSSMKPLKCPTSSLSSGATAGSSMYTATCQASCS
Test: qHTS of GLP-1 Receptor Inverse Agonists (Inhibition Mode); also: nearly all actives have a fitted effect of over 55% in size
Conditions: HEK293 GLP-1R CRE-luciferase, luminescence, 24 h, GLP-1R form is constitutively active; series mostly up to 38.3 µM
In short: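 GLP-1R inverse agonism mode: basal reporter luminescence in engineered HEK293 cells measured after one day of compound exposure at 37 deg C, with a 12 min room-temperature detection step.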
Potency is read from the fitted curve at half-maximal effect; tags tell the direction and shape of the fitted curve.

Row | Compound | Potency
1 | O=C(Nc1ccc2c(c1)OCO2)c1cc(-c2ccncc2)nc2ccccc12 | inconclusive [inhibitor, partial curve, poor fit]
2 | Cc1nc(SCC(=O)Nc2ccc(CN3CCCC3)cc2)c2c(C)c(C)sc2n1 | inconclusive [inhibitor, partial curve, poor fit]
3 | C[C@@H]1CN([C@H](C)CO)C(=O)CCCn2nncc2CO[C@@H]1CN(C)C(=O)OCc1ccccc1 | inactive
4 | O=C(Nc1ccc2c(c1)N(S(=O)(=O)c1cccs1)CCC2)c1c(F)cccc1F | inconclusive [inhibitor, partial curve, poor fit]
5 | COc1cc2c(C(=O)N3CCN(c4cccc(C(F)(F)F)c4)CC3)cn(CC(C)C)c(=O)c2cc1OC | inconclusive [inhibitor, single point]
6 | c1ccc(-n2nnnc2Sc2ncnc3sc4c(c23)CCCC4)cc1 | inactive
7 | CCn1c(C)c(C)c2cc(C(=O)NCc3ccc(OC(C)C)cc3)ccc21 | inactive
8 | CN1CCN(C(=S)c2ccc(OCC(=O)Nc3cccc(C(F)(F)F)c3)cc2)CC1 | inconclusive [inhibitor, partial curve, poor fit]
9 | CCOC(=O)c1nnn(-c2nonc2N)c1CSc1ccc(C)cc1 | inconclusive [inhibitor, partial curve, poor fit]
10 | COc1ccc(NC(=O)Cn2c(=O)n(Cc3ccc4c(c3)OCO4)c(=O)c3ccc(C(=O)NC4CCCCC4)cc32)cc1 | inactive
11 | Cc1ccc(NC(=S)N2CCc3[nH]c4ccccc4c3C2)cc1 | inconclusive [inhibitor, partial curve, poor fit]
12 | COc1cccc(Nc2nc(C)nc3c2oc2ccccc23)c1 | inconclusive [inhibitor, single point]
13 | CC(=O)Nc1ccc(NC(=O)C(C)OC(=O)C2(c3ccc(Cl)cc3)CCCC2)cc1 (configuration not stated) | inconclusive [inhibitor, partial curve, poor fit]
14 | COc1ccc(OCC(=O)N(Cc2cccs2)c2ccc(OC)cc2)cc1 | inconclusive [inhibitor, single point]
15 | NNc1nc(-c2ccccc2)nc(-c2ccccc2)c1Br | inconclusive [inhibitor, single point]
16 | Cc1ccc(C(=O)Nc2ccc(Cl)cn2)cc1 | inconclusive [inhibitor, full curve, poor fit]
17 | COc1ccc(OCc2cc(C(=O)NC(C)Cc3cccnc3)no2)c(Cl)c1 (configuration not stated) | inconclusive [inhibitor, full curve, poor fit]
18 | CC(C)[C@H](NC(=O)N1CCn2c1nc1ccccc12)C(=O)NCc1ccc(F)cc1 | inconclusive [inhibitor, partial curve, poor fit]
19 | CC(Oc1ccc2c3c(c(=O)oc2c1)CCC3)C(=O)NCC1CCC(C(=O)O)CC1 (configuration not stated) | inactive
20 | CCOC(=O)c1c(-c2cccc([N+](=O)[O-])c2)csc1NC(=O)C1CC1 | inconclusive [inhibitor, partial curve, poor fit]
21 | O=C(Nc1c(C(=O)N2CCN(c3ccccc3)CC2)oc2ccccc12)c1ccc(Br)o1 | inactive
22 | COc1ccc(C2Nc3ccccc3C(=O)N2Cc2ccccc2)cc1Cn1nnc2ccccc21 (configuration not stated) | inconclusive [inhibitor, single point]
23 | CCCCn1nnnc1C(CCSC)N1CCN(C/C=C/c2ccccc2)CC1 (configuration not stated) | inactive

Row | Compound | Potency
24 | O=C(O)C1=C(C2CCCCC2)C(=O)c2ccccc21 | inactive
25 | CCOC(=O)c1ccc(-n2c(CCC(=O)O)ccc2-c2ccc(Br)cc2)cc1 | inconclusive [inhibitor, partial curve, poor fit]
26 | CCOC(=O)[C@]12CCCC=C1N(Cc1cccc3ccccc13)C(=O)[C@H](CC(=O)NCc1ccccc1)C2 | inconclusive [inhibitor, single point]
27 | CCCCc1nc2cc(C(=O)N3CCCCC3COC)ccc2o1 (configuration not stated) | inactive
28 | COc1cc2c(cc1OC)C1=C(C#N)COCN1CC2 | inactive
29 | CCc1cccc(NC(=O)CCS(=O)(=O)c2ccc3c(c2)NC(=O)CO3)c1 | inconclusive [inhibitor, partial curve, poor fit]
30 | COc1cccc(CNCCSc2nnnn2C)c1OCc1ccccc1Cl | inconclusive [inhibitor, single point]
31 | Cc1n[nH]c2ccc(Br)cc2c1=O | inactive
32 | CCCCCc1c(-c2cccc(F)c2)ncn1CCc1ccccc1OC | inconclusive [inhibitor, single point]
33 | Cc1ccc(S(=O)(=O)NC(C)C(c2cccs2)N2CCN(C)CC2)cc1 (configuration not stated) | inconclusive [inhibitor, single point]
34 | Cc1nc(NC(C)C(=O)O)c2nc(C)oc2n1 (configuration not stated) | inactive
35 | CC1=NN(C(N)=S)C(=O)C1N=Nc1ccc(Cl)cc1 (configuration not stated) | inconclusive [inhibitor, single point]
36 | Fc1ccc(NC(=S)N2CCc3[nH]c4ccccc4c3C2)cc1 | inconclusive [inhibitor, full curve, poor fit]
37 | Cc1cc(NC(=O)c2cc(-c3ccc(C)c(C)c3)nc3ccccc23)no1 | inactive
38 | Cc1ccccc1NC(=O)N(CCc1nc2ccccc2[nH]1)Cc1ccccc1 | inconclusive [inhibitor, single point]
39 | O=C(NCc1cccc(Cl)c1)c1ccc(CS(=O)Cc2ccc(Cl)cc2)o1 (configuration not stated) | inconclusive [inhibitor, single point]
40 | O=C(c1ccco1)N1CCN(C(c2ccccc2Cl)c2nnnn2Cc2ccco2)CC1 (configuration not stated) | inconclusive [inhibitor, partial curve, poor fit]
41 | CCC1CCCCN1C(=O)CCCOc1ccccc1 (configuration not stated) | inconclusive [inhibitor, partial curve, poor fit]
42 | Cc1ccc(S(=O)(=O)N2CCOCC2)cc1C(=O)Nc1ccccc1N1CCCC1 | inconclusive [inhibitor, single point]
43 | CC(C)(c1ccccc1)c1ccc(OCCCNCCO)cc1 | inconclusive [inhibitor, full curve, poor fit]
44 | O=C(CSCc1ccc(Br)cc1)NCCc1ccccc1 | inconclusive [inhibitor, partial curve]
45 | Cc1ccc(S(=O)(=O)N(CC(O)CN2CCCCC2)c2ccccc2)cc1 (configuration not stated) | inconclusive [inhibitor, full curve]
46 | C=CCn1c(O)c(N=NC(=S)Nc2cccc(OC)c2)c2ccccc21 | inconclusive [inhibitor, single point]

Row | Compound | Potency
47 | Cc1nn(-c2ccccc2)c2c1N(CCCC(=O)NCc1ccc(N(C)C)cc1)C(=O)CS2 | inactive
48 | Cc1ccc(S(=O)(=O)NN=C2CC(C)(C)OC2(C)C)cc1 | inactive
49 | CC1(C(=O)NS(=O)(=O)Cc2ccccc2)CCN1C(=O)CCc1ccccc1 (configuration not stated) | inactive
50 | CCOc1ccccc1NC(=O)c1ccccc1-c1ccccc1 | inconclusive [inhibitor, single point]
51 | CCOc1cc(CN2CCC(CO)(Cc3cccc(C(F)(F)F)c3)CC2)ccc1OC | inconclusive [inhibitor, partial curve, poor fit]
52 | CCc1ccc(-c2cc(N)n(-c3ccccc3)n2)cc1 | inconclusive [inhibitor, single point]
53 | COc1ccc(CC(=O)Nc2sc3c(c2C(=O)Nc2cccc(Cl)c2)CCCCC3)cc1 | inconclusive [inhibitor, single point]
54 | O=C(Nc1ccc(S(=O)(=O)Nc2ncccn2)cc1)C1CC(=O)N(c2ccccc2)C1 (configuration not stated) | inactive
55 | CCn1cc(Br)c(C(=O)Nc2ccc(C(=O)OC(C)C)cc2)n1 | inconclusive [inhibitor, single point]
56 | CC1CCCN(C(=O)C2CCN(c3nc(-c4ccccc4)nc4c3CCC4)CC2)C1 (configuration not stated) | inconclusive [inhibitor, single point]
57 | COC(=O)C1(Cc2cc(-c3ccc(OC)cc3OC)no2)CCN(C(=O)OC(C)(C)C)CC1 | inconclusive [inhibitor, single point]
58 | O=C(Nc1ccccn1)c1ccc2c(c1)OCCO2 | inconclusive [inhibitor, single point]
59 | CCOC(=O)C1CCCN(C(=O)c2cc(OC)ccc2Br)CC1 (configuration not stated) | inactive
60 | CCc1nnc(NC(=O)c2ccc(S(=O)(=O)N3CCCC(C)C3)cc2)o1 (configuration not stated) | inconclusive [inhibitor, single point]
61 | COCCCN(C(=S)Nc1ccc(C)cc1Cl)C(C)c1ccncc1 (configuration not stated) | inconclusive [inhibitor, single point]
62 | COC(=O)CSc1ncc2c(n1)-c1ccccc1N(Cc1ccccc1C)S2(=O)=O | inactive
63 | CCSc1nnc([C@H](Cc2c[nH]c3ccccc23)NC(=O)OC(C)(C)C)o1 | inconclusive [inhibitor, single point]
64 | CCCSc1nnc(-c2cnn(-c3ccccc3)c2-n2cccc2)n1C | inconclusive [inhibitor, single point]
65 | O=C(NCc1ccccc1)c1cc2sccc2n1Cc1ccc(Cl)cc1 | inconclusive [inhibitor, partial curve, poor fit]
66 | CC(C)n1cc(C(=O)c2cc(Br)ccc2O)cc(C#N)c1=O | inactive
67 | O=C(NC(Cc1ccccc1)C(=O)N1CCCCCC1)c1ccccc1 (configuration not stated) | inconclusive [inhibitor, single point]

Source: PubChem BioAssay AID624417 (National Center for Advancing Translational Sciences (NCATS), 2012)
